Assay results published in the supplement of paper PMC10369915.
Some of the results follow. Rule as the data show it: active = 3.2 or more and inactive = the rest. Most of these values are background signal.

target: SHP2 C-SH2 domain E139D; experiment: enrichment score (SH2-bound / input frequency) (ratio); bacterial display of known human phosphotyrosine sites (pTyr-Var adds point mutants) read by sequencing; higher = stronger binding; tyrosines were phosphorylated by kinases first; details: peptide library: Human pTyr
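Also: displayed peptides selected on beads carrying the immobilized SH2 domain, with library peptides lacking any tyrosine serving as negative controls.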

Enrichment score, inactive:
AADNLAIYKSFLGTS [PEAK1_HUMAN_641_YA] 0.699, SPAGRSIYNSFAVAC [PARK2_HUMAN_143_YA] 1.42, FLSEETPYSAPTGNH [PAXI_HUMAN_31_YA] 0.616, MELQTYRYHGHSMSD [PDHA1_HUMAN_289] 0.511, AYDNLAIYKSFLGTS [PEAK1_HUMAN_641] 0.469, AKMLCEQYALVAPEL [PDK3_HUMAN_211_YA] 1.13, AKLLCDKYAMASPDL [PDK2_HUMAN_215_YA] 0.917, SNTVKQKYLSFTPPE [PAK2_HUMAN_139] 0.838, CTMSVDRYIAVCHPV [OPRM_HUMAN_168] 1.74, AEDAKAIYDFTDTVI [PDK1_HUMAN_136] 0.753, DSRGKDSYETSQLDD [OSTP_HUMAN_225] 0.987, SDHMENVYGYLMKYT [OSB11_HUMAN_62] 1.43, SEDDEDCYGNYDNLL [PDPK1_HUMAN_373] 1.15, SREADQLYEEATRTS [P85B_HUMAN_464_YA] 0.718, MVSKSANYCHTSQGD [PARP1_HUMAN_907] 0.748, VAQYDGAYKVSRGLW [ODPB_HUMAN_67] 0.783, DDQENCVYETVVLPL [PDCD4_HUMAN_152] 1.3, SREADRLYEEATRTS [P85A_HUMAN_467_YA] 0.795

target: SHP2 C-SH2 domain wild-type; experiment: as above; details: peptide library: Human pTyr

Enrichment score, inactive:
AADNLAIYKSFLGTS [PEAK1_HUMAN_641_YA] 0.657, SPAGRSIYNSFAVAC [PARK2_HUMAN_143_YA] 1.08, FLSEETPYSAPTGNH [PAXI_HUMAN_31_YA] 0.451, MELQTYRYHGHSMSD [PDHA1_HUMAN_289] 0.461, AYDNLAIYKSFLGTS [PEAK1_HUMAN_641] 0.5, AKMLCEQYALVAPEL [PDK3_HUMAN_211_YA] 1.28, AKLLCDKYAMASPDL [PDK2_HUMAN_215_YA] 0.927, SNTVKQKYLSFTPPE [PAK2_HUMAN_139] 0.72, CTMSVDRYIAVCHPV [OPRM_HUMAN_168] 1.45, AEDAKAIYDFTDTVI [PDK1_HUMAN_136] 0.836, DSRGKDSYETSQLDD [OSTP_HUMAN_225] 0.928, SDHMENVYGYLMKYT [OSB11_HUMAN_62] 1.09, SEDDEDCYGNYDNLL [PDPK1_HUMAN_373] 0.804, SREADQLYEEATRTS [P85B_HUMAN_464_YA] 0.589, MVSKSANYCHTSQGD [PARP1_HUMAN_907] 0.702, VAQYDGAYKVSRGLW [ODPB_HUMAN_67] 0.704, DDQENCVYETVVLPL [PDCD4_HUMAN_152] 1.09, SREADRLYEEATRTS [P85A_HUMAN_467_YA] 0.616

target: SHP2 N-SH2 domain L43F; experiment: as above; details: peptide library: Human pTyr

Enrichment score, inactive:
AADNLAIYKSFLGTS [PEAK1_HUMAN_641_YA] 0.664, SPAGRSIYNSFAVAC [PARK2_HUMAN_143_YA] 1.09, FLSEETPYSAPTGNH [PAXI_HUMAN_31_YA] 0.458, MELQTYRYHGHSMSD [PDHA1_HUMAN_289] 0.636, AYDNLAIYKSFLGTS [PEAK1_HUMAN_641] 0.63, AKMLCEQYALVAPEL [PDK3_HUMAN_211_YA] 1.28, AKLLCDKYAMASPDL [PDK2_HUMAN_215_YA] 0.895, SNTVKQKYLSFTPPE [PAK2_HUMAN_139] 0.787, CTMSVDRYIAVCHPV [OPRM_HUMAN_168] 1.73, AEDAKAIYDFTDTVI [PDK1_HUMAN_136] 0.578, DSRGKDSYETSQLDD [OSTP_HUMAN_225] 0.886, SDHMENVYGYLMKYT [OSB11_HUMAN_62] 1.08, SEDDEDCYGNYDNLL [PDPK1_HUMAN_373] 1.13, SREADQLYEEATRTS [P85B_HUMAN_464_YA] 0.764, MVSKSANYCHTSQGD [PARP1_HUMAN_907] 0.734, VAQYDGAYKVSRGLW [ODPB_HUMAN_67] 0.667, DDQENCVYETVVLPL [PDCD4_HUMAN_152] 1.29, SREADRLYEEATRTS [P85A_HUMAN_467_YA] 0.634

target: SHP2 N-SH2 domain T42A; experiment: as above; details: peptide library: Human pTyr

Enrichment score, inactive:
AADNLAIYKSFLGTS [PEAK1_HUMAN_641_YA] 0.635, SPAGRSIYNSFAVAC [PARK2_HUMAN_143_YA] 1.1, FLSEETPYSAPTGNH [PAXI_HUMAN_31_YA] 1.26, MELQTYRYHGHSMSD [PDHA1_HUMAN_289] 0.514, AYDNLAIYKSFLGTS [PEAK1_HUMAN_641] 0.531, AKMLCEQYALVAPEL [PDK3_HUMAN_211_YA] 1.33, AKLLCDKYAMASPDL [PDK2_HUMAN_215_YA] 0.931, SNTVKQKYLSFTPPE [PAK2_HUMAN_139] 0.716, CTMSVDRYIAVCHPV [OPRM_HUMAN_168] 1.55, AEDAKAIYDFTDTVI [PDK1_HUMAN_136] 0.657, DSRGKDSYETSQLDD [OSTP_HUMAN_225] 0.939, SDHMENVYGYLMKYT [OSB11_HUMAN_62] 1.01, SEDDEDCYGNYDNLL [PDPK1_HUMAN_373] 0.934, SREADQLYEEATRTS [P85B_HUMAN_464_YA] 0.69, MVSKSANYCHTSQGD [PARP1_HUMAN_907] 0.786, VAQYDGAYKVSRGLW [ODPB_HUMAN_67] 0.722, DDQENCVYETVVLPL [PDCD4_HUMAN_152] 1.15, SREADRLYEEATRTS [P85A_HUMAN_467_YA] 0.64

target: SHP2 N-SH2 domain T52S; experiment: as above; details: peptide library: Human pTyr

Enrichment score, inactive:
AADNLAIYKSFLGTS [PEAK1_HUMAN_641_YA] 0.658, SPAGRSIYNSFAVAC [PARK2_HUMAN_143_YA] 1.3, FLSEETPYSAPTGNH [PAXI_HUMAN_31_YA] 0.595, MELQTYRYHGHSMSD [PDHA1_HUMAN_289] 0.683, AYDNLAIYKSFLGTS [PEAK1_HUMAN_641] 0.604, AKMLCEQYALVAPEL [PDK3_HUMAN_211_YA] 1.41, AKLLCDKYAMASPDL [PDK2_HUMAN_215_YA] 1.02, SNTVKQKYLSFTPPE [PAK2_HUMAN_139] 0.808, CTMSVDRYIAVCHPV [OPRM_HUMAN_168] 1.93, AEDAKAIYDFTDTVI [PDK1_HUMAN_136] 0.935, DSRGKDSYETSQLDD [OSTP_HUMAN_225] 1.15, SDHMENVYGYLMKYT [OSB11_HUMAN_62] 1.11, SEDDEDCYGNYDNLL [PDPK1_HUMAN_373] 0.946, SREADQLYEEATRTS [P85B_HUMAN_464_YA] 0.621, MVSKSANYCHTSQGD [PARP1_HUMAN_907] 0.691, VAQYDGAYKVSRGLW [ODPB_HUMAN_67] 0.765, DDQENCVYETVVLPL [PDCD4_HUMAN_152] 1.15, SREADRLYEEATRTS [P85A_HUMAN_467_YA] 0.637

target: SHP2 N-SH2 domain wild-type; experiment: as above; details: peptide library: Human pTyr

Enrichment score, inactive:
AADNLAIYKSFLGTS [PEAK1_HUMAN_641_YA] 0.803, SPAGRSIYNSFAVAC [PARK2_HUMAN_143_YA] 1.28, FLSEETPYSAPTGNH [PAXI_HUMAN_31_YA] 0.548, MELQTYRYHGHSMSD [PDHA1_HUMAN_289] 0.667, AYDNLAIYKSFLGTS [PEAK1_HUMAN_641] 0.705, AKMLCEQYALVAPEL [PDK3_HUMAN_211_YA] 1.36, AKLLCDKYAMASPDL [PDK2_HUMAN_215_YA] 0.972, SNTVKQKYLSFTPPE [PAK2_HUMAN_139] 1.19, CTMSVDRYIAVCHPV [OPRM_HUMAN_168] 1.75, AEDAKAIYDFTDTVI [PDK1_HUMAN_136] 0.912, DSRGKDSYETSQLDD [OSTP_HUMAN_225] 1.07, SDHMENVYGYLMKYT [OSB11_HUMAN_62] 1.77, SEDDEDCYGNYDNLL [PDPK1_HUMAN_373] 1.09, SREADQLYEEATRTS [P85B_HUMAN_464_YA] 0.706, MVSKSANYCHTSQGD [PARP1_HUMAN_907] 0.821, VAQYDGAYKVSRGLW [ODPB_HUMAN_67] 0.846, DDQENCVYETVVLPL [PDCD4_HUMAN_152] 1.19, SREADRLYEEATRTS [P85A_HUMAN_467_YA] 0.589
